In PubChem BioAssay AID588342 (National Center for Advancing Translational Sciences (NCATS), 2011):
Among all 360,000 compounds or so, about 25,000 (6.9%) were called active. The inconclusive results got no clear call from the source; some entries with a clear call stand among them for comparison. The call rests on the fitted dose curve; in most records, active means well fitted inhibition curve with a large enough effect; inconclusive means small, poorly fitted or top-dose-only effect; inactive means flat fitted curve, though single readings scatter. Where the call is inconclusive, the potency comes from a doubtful curve fit.

Each compound was assayed against Luciferin 4-monooxygenase (Photinus pyralis) (UniProt P08659) (assay: qHTS profiling assay for firefly luciferase inhibitor/activator using purifed enzyme and Km concentrations of substrates (counterscreen for miR-21 project)). Conditions: purified FLuc, luminescence inhibition; series mostly up to 57.5 µM.
Chain of UniProt P08659 (P08659 whole entry, looked up): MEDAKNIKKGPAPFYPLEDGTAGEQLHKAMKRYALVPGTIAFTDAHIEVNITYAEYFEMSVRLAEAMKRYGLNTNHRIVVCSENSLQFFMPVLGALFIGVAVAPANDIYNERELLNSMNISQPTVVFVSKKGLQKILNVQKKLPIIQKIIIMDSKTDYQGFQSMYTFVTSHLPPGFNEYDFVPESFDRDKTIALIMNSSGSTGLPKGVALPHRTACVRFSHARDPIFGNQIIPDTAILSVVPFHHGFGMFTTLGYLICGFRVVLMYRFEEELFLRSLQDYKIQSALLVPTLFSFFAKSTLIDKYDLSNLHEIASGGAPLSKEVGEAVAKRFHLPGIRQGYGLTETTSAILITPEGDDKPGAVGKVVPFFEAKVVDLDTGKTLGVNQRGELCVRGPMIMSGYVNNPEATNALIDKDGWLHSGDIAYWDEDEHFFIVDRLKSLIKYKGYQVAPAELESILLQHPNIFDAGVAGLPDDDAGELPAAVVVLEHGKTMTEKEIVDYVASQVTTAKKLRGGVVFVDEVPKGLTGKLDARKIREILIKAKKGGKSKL
Outline: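 Purified P. pyralis luciferase, 10 nM final, with Km-level 10 uM D-luciferin and 10 uM ATP in 50 mM Tris acetate pH 7.5, 10 mM Mg acetate, 0.01% Tween-20, 0.05% BSA; 6-point qHTS titration about 60 µM downward; luminescence read.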
Further: nearly all actives have a fitted effect of over 55% in size.
Potency means the concentration at half of the fitted maximal effect; tags describe the fitted curve by direction and shape.

| Structure (SMILES) | Potency |
| --- | --- |
| O=C(N/C(=N\O)c1ccccc1)Nc1ccc(Cl)cc1 | active: 16.9 µM |
| Cc1cccc(OCCn2c(-c3ccco3)nc3ccccc32)c1 | inconclusive: 19 µM [inhibitor, single point] |
| Cc1ccc2nc(Nc3ccccc3)cc(C)c2c1 | active: 23.9 µM |
| CC(=O)NCCC(=O)Nc1nc2ccc(Oc3ccccc3)cc2s1 | active: 6.75 µM |
| CCN(CC)C(=O)CSc1nc2c(sc(=S)n2-c2ccccc2)c(=O)n1-c1ccc(OC)cc1OC | inconclusive: 21.3 µM [inhibitor, partial curve, poor fit] |
| COc1ccc(OC)c(NC(=O)c2c(NCc3ccc(C)o3)sc3c2CCCCC3)c1 | inconclusive: 10.7 µM [inhibitor, partial curve, poor fit] |
| O=C(CCC1CCCN(C(=O)c2ccc3cc[nH]c3c2)C1)NCc1ccc(F)c(F)c1 (stereo not drawn) | inconclusive: 37.9 µM [inhibitor, single point] |
| C/C(=N\Nc1nc(N)cc(Cl)n1)c1cccc(N)c1 | inconclusive: 21.3 µM [inhibitor, partial curve, poor fit] |
| CSc1ccc(/C=N/Nc2cccc(C(=O)O)c2)cc1 | active: 0.0757 µM |
| O=C(O)c1cccc(-c2ccc(/C=N/n3cnc4sc5c(c4c3=O)CCCC5)o2)c1 | inconclusive: 37.9 µM [inhibitor, partial curve, poor fit] |
| CN1CCN(C(=O)CCN2C(=O)/C(=C/c3ccccc3Cl)SC2=S)CC1 | inconclusive: 26.9 µM [inhibitor, partial curve, poor fit] |
| COc1cccc(C(=O)Oc2ccc3ccc(O)cc3c2)c1 | active: 6.01 µM |
| Cc1ccc(C(=O)Nc2c(N)nc(SCC(=O)Nc3cc(C)on3)[nH]c2=O)cc1 | inconclusive: 21.3 µM [inhibitor, partial curve, poor fit] |
| CC(=O)c1cccc(S(=O)(=O)NCC2CCCCC2)c1 | inactive |
| COc1ccc(-n2ncc3c(N4CCN(Cc5ccccc5)CC4)ncnc32)cc1 | inconclusive: 37.9 µM [inhibitor, partial curve, poor fit] |
| O=C(ON=C1CCN(S(=O)(=O)c2ccccc2)CC1)c1ccc(Cl)cc1 | inconclusive: 37.9 µM [inhibitor, partial curve, poor fit] |
| Cc1c(Br)c([N+](=O)[O-])nn1CC(=O)N1CCN(Cc2ccccc2)CC1 | active: 13.5 µM |
| Cc1csc2nc(CSc3nc4ccccc4o3)c(Br)n12 | active: 8.49 µM |
| Cc1cc(Nc2ccccc2)n(-c2nc3ccccc3[nH]2)n1 | inconclusive: 37.9 µM [inhibitor, partial curve, poor fit] |
| CC(C)(C)c1ccc(OCC(=O)NCc2ccco2)c(Br)c1 | inconclusive: 21.3 µM [inhibitor, single point] |
| Cc1ccc(-c2cc(C(=O)Nc3nn[nH]n3)c3ccccc3n2)cc1 | active: 3.79 µM |
| Cc1cccc(Nc2nnc(SCC(=O)c3c(N)n(C4CC4)c(=O)[nH]c3=O)s2)c1 | inconclusive: 2.69 µM [inhibitor, partial curve] |
| CCOC(=O)c1sc(C)c(C(N)=O)c1NC1=NCCCCC1 | inconclusive: 37.9 µM [inhibitor, single point] |
| CCc1cc2cc(C(=O)Nc3ccc(C)cc3)sc2s1 | inconclusive: 3.01 µM [inhibitor, partial curve, poor fit] |
| N#Cc1ccc(COC(=O)CN2C(=O)NC3(CCCC3)C2=O)cc1 | inactive |

| Structure (SMILES) | Potency |
| --- | --- |
| N#CCSc1nnc(-c2c[nH]c3ccccc23)o1 | inactive |
| Cc1cccc(C)c1OCc1cc(C(=O)N2CCN(c3ccccn3)CC2)no1 | inconclusive: 23.9 µM [inhibitor, single point] |
| COc1ccc(CC(=O)NCc2nnc(SCC(=O)Nc3ccc(OC)cc3)n2C)cc1 | inconclusive: 23.9 µM [inhibitor, partial curve, poor fit] |
| CCOC(=O)c1c(NC(=O)CSc2cn(CCNC(=O)c3ccccc3OC)c3ccccc23)sc2c1CCCC2 | inactive |
| COc1ccc(/C=N/NC(=O)c2ccc(CN3C(=O)c4cccc5cccc3c45)cc2)cc1O | inconclusive: 9.53 µM [inhibitor, partial curve, poor fit] |
| CCC(CC)C(=O)Nc1ccc2nc(SCC(=O)N3CCOCC3)sc2c1 | inactive |
| Cc1ccc2oc(=O)n(CCOc3ccccc3)c2c1 | inconclusive: 37.9 µM [inhibitor, single point] |
| CCC(C)n1c(SCc2ccc(F)cc2Cl)nc2ccsc2c1=O (stereo not drawn) | inactive |
| Cc1ccc(CSc2nc3ccc(NC(=O)CC(C)C)cc3s2)cc1 | inactive |
| CCOC(=O)c1sc(/N=C/c2ccc(O)cc2O)cc1C | active: 1.35 µM |
| CN(C)CCNC(=O)c1ccc2nc(Cc3ccccc3)oc2c1 | inactive |
| COc1ccccc1C(=O)Nc1ccc(OCC(=O)N2CC(C)CC(C)C2)cc1 (stereo not drawn) | active: 10.7 µM |
| Nc1[nH]c2cc([N+](=O)[O-])ccc2c1-c1ccccn1 | inconclusive: 23.9 µM [inhibitor, partial curve, poor fit] |
| Cc1ccc2c(c1)N(CCC(=O)NCCN1CCOCC1)C(=O)CO2 | inactive |
| CCCCCOc1ccc(OC(=O)c2ccncc2)cc1 | inconclusive: 23.9 µM [inhibitor, partial curve, poor fit] |
| Cc1ccc(C(=O)Nc2nnc(-c3ccco3)o2)cc1 | active: 13.5 µM |
| O=C(c1c[nH]c2ccc(S(=O)(=O)N3CCOCC3)cc2c1=O)N1CCN(c2ccccn2)CC1 | inactive |
| COc1ccc(CCN2CC(C(=O)Nc3ccccc3F)CC2=O)cc1OC (stereo not drawn) | inactive |
| COc1cc(CCN2C(=O)c3cccc4cccc(c34)C2=O)c(S(=O)(=O)NCCO)cc1OC | active: 13.5 µM |
| CNc1c(C(=O)O)ccc2c1C(=O)c1ccccc1C2=O | inconclusive: 21.3 µM [inhibitor, partial curve] |
| Cc1ccc2nc(SCC(=O)Nc3cccnc3Cl)[nH]c2c1 | inactive |
| COc1cccc(/C=N/n2c(C)nc3ccccc3c2=O)c1O | inconclusive: 21.3 µM [inhibitor, partial curve, poor fit] |
| O=C(CSc1nnnn1-c1ccc(Cl)cc1)NC(=O)Nc1ccc2c(c1)OCCO2 | inconclusive: 37.9 µM [inhibitor, single point] |
| O=C(N/N=C/c1ccccn1)c1cc([N+](=O)[O-])cc([N+](=O)[O-])c1 | inactive |
| Cc1onc(-c2ccccc2Cl)c1C(=O)NC(=S)NCC(=O)c1ccccc1 | inconclusive: 37.9 µM [inhibitor, single point] |

| Structure (SMILES) | Potency |
| --- | --- |
| COc1ccccc1N1CCN(c2ncc3c(n2)CCN(Cc2ccc(C)s2)C3)CC1 | inactive |
| CCCCC(=O)N/N=C/c1ccc(Sc2cccc3cccnc23)o1 | inconclusive: 23.9 µM [inhibitor, single point] |
| COc1ccc(/C=C/C(=O)OCC(=O)NC2CCCC2)c(OC)c1 | inconclusive: 21.3 µM [inhibitor, partial curve, poor fit] |
| Fc1ccc(CNc2nc(-c3ccc(Cl)cc3)cc(C(F)(F)F)n2)cc1 | inactive |
| CC1CCN(c2ccc(-c3cccs3)nn2)CC1 | active: 0.0757 µM |
| Cc1ccn2c(c1)nc(=O)c1cc(S(=O)(=O)N3CCOCC3)ccc12 | inactive |
| Cc1ccccc1N/N=C/c1ccc(C#N)cc1 | inconclusive: 23.9 µM [inhibitor, single point] |
| CCn1c(=O)c(C(=O)Nc2ccc(C)cc2)c(O)c2ccccc21 | inconclusive: 8.49 µM [inhibitor, partial curve, poor fit] |
| CC(C)(C)c1cc(NC(=O)c2cccc(S(=O)(=O)N3CCOCC3)c2)no1 | inconclusive: 37.9 µM [inhibitor, partial curve, poor fit] |
| COC(=O)c1ccc(-c2cc(CC3(C(=O)OC)CCN(C(=O)OC(C)(C)C)CC3)on2)cc1 | inconclusive: 37.9 µM [inhibitor, partial curve, poor fit] |
| COc1ccc(C2Nc3ccccc3C(=O)N2NS(=O)(=O)c2ccccc2)cc1OC (stereo not drawn) | inactive |
| Cc1cccc(C)c1OCC(=O)Nc1ccc2c(c1)OCCO2 | inconclusive: 2.39 µM [inhibitor, full curve] |
| CCC/C(C)=N/NC(=O)c1ccccc1O | inconclusive: 4.78 µM [inhibitor, partial curve, poor fit] |
| CCc1ccccc1-n1c(SCC(=O)Nc2ccc(C)cc2)nc2n[nH]c(C)c2c1=N | inactive |
| Cc1cc(C(=O)Nc2sc(C)c(-c3ccc(F)cc3)c2C(N)=O)no1 | active: 1.2 µM |
| CN(c1cnn(-c2ccccc2)c(=O)c1Cl)n1cccc1 | inconclusive: 21.3 µM [inhibitor, single point] |
| CCc1cccc(NC(=O)Cn2c(-c3ccc(F)cc3)cc(C(C)=O)c2C)c1 | inactive |
| C/C(=N\NS(=O)(=O)c1ccccc1)c1ccc2c(c1)OCO2 | inconclusive: 23.9 µM [inhibitor, partial curve] |
| CC(C)(C)c1csc(NC(=O)c2ccc(Cl)s2)n1 | active: 6.75 µM |
| Nc1nc2nc(-c3ccccc3)cc(=O)n2[nH]1 | active: 12 µM |
| Cc1ccccc1CNC(=O)CN1CCSc2ccccc21 | inconclusive: 21.3 µM [inhibitor, partial curve, poor fit] |
| CN(C(=O)c1ccco1)c1nc(CC(=O)Nc2ccccc2)cs1 | inconclusive: 37.9 µM [inhibitor, single point] |
| CN(C)c1ccc(S(=O)(=O)N2CCCCC2)cc1NC(=O)C1=COCCO1 | inactive |
